The values that follow come from PMC12820563, “FoxP3 forms a head-to-head dimer in vivo and stabilizes its multimerization on adjacent microsatellites”.

The list shows a part of the results.

This test has as its target T1, MBP-FoxP1dN (Mus musculus, UniProt P58462 326-579).
T1 sequence: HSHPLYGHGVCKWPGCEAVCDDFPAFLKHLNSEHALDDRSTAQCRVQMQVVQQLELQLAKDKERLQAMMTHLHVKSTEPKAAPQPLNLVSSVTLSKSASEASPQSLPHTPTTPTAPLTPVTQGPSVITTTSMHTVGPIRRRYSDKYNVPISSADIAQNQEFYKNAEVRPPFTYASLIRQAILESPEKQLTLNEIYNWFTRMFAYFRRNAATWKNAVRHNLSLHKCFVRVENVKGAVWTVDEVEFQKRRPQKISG
Put plainly: PD-seq (MBP pull-down with sequencing); 20 mM Tris-HCl pH 7.5, 100 mM NaCl, 1.5 mM MgCl2, 0.4 uM protein, 0.1 uM dsDNA library, 30 min, room temperature, amylose pull-down; high values mean tight binding. As to conditions: protein: recombinant; tags: His6-MBP; chain copies: 2; dsDNA, one strand shown. Put shortly:
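Amylose resin was used to capture complexes formed during 30 min at room temperature in Tris pH 7.5 buffer with NaCl and MgCl2 between 0.4 µM His6-MBP-tagged mouse FoxP3 or FoxP1 fragment lacking the N-terminus, expressed in E. coli, and 0.1 µM Klenow-filled double-stranded degenerate DNA library. After three washes, the DNA was released with proteinase K, barcoded by PCR and sequenced on Illumina. Binding is pooled-replicate reads-per-million enrichment, pull-down over input.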
As for “GATGATTGTTCTCCCAGCTGATGAATTGATTTGTTCGAGTAAACAAATTTTCCTAATCTTTCTGTTCAAGCGCCATCTAC”, the binding signal is 1.22 RPM ratio (pull-down/input).

For the sequence “GATGATTGTTCTCCCAGCTGATGAATTCGGCGTTTCGAGTAAACAAATTTTCCTAATCTTTCTGTTCAAGCGCCATCTAC”, the binding signal is 0.872 RPM ratio (pull-down/input).

Take “GATGATTGTTCTCCCAGCTGATGAATTAATCCTTTCGAGTAAACAAATTTTCCTAATCTTTCTGTTCAAGCGCCATCTAC”: the binding signal is 0.892 RPM ratio (pull-down/input).

In the case of “GATGATTGTTCTCCCAGCTGATGAATTATGCACCTCGAGTAAACAAATTTTCCTAATCTTTCTGTTCAAGCGCCATCTAC”, the binding signal is 1.04 RPM ratio (pull-down/input).

On to “GATGATTGTTCTCCCAGCTGATGAATTGACCCGCTCGAGTAAACAAATTTTCCTAATCTTTCTGTTCAAGCGCCATCTAC”, for which the binding signal is 0.842 RPM ratio (pull-down/input).

Consider “GATGATTGTTCTCCCAGCTGATGAATTTTAATCGTCGAGTAAACAAATTTTCCTAATCTTTCTGTTCAAGCGCCATCTAC”, for which the binding signal is 0.908 RPM ratio (pull-down/input).

As for “GATGATTGTTCTCCCAGCTGATGAATTCGCCGACTCGAGTAAACAAATTTTCCTAATCTTTCTGTTCAAGCGCCATCTAC”, the binding signal is 0.694 RPM ratio (pull-down/input).

For “GATGATTGTTCTCCCAGCTGATGAATTAGCATGCTCGAGTAAACAAATTTTCCTAATCTTTCTGTTCAAGCGCCATCTAC”, the binding signal was 0.959 RPM ratio (pull-down/input).

“GATGATTGTTCTCCCAGCTGATGAATTTTCCTTGTCGAGTAAACAAATTTTCCTAATCTTTCTGTTCAAGCGCCATCTAC”: the binding signal was 0.879 RPM ratio (pull-down/input).

“GATGATTGTTCTCCCAGCTGATGAATTAGGATCCTCGAGTAAACAAATTTTCCTAATCTTTCTGTTCAAGCGCCATCTAC”: the binding signal is 0.743 RPM ratio (pull-down/input).

As for “GATGATTGTTCTCCCAGCTGATGAATTCGGATGGTCGAGTAAACAAATTTTCCTAATCTTTCTGTTCAAGCGCCATCTAC”, the binding signal was 0.796 RPM ratio (pull-down/input).

Take “GATGATTGTTCTCCCAGCTGATGAATTATCAGGATCGAGTAAACAAATTTTCCTAATCTTTCTGTTCAAGCGCCATCTAC”: the binding signal is 0.915 RPM ratio (pull-down/input).

“GATGATTGTTCTCCCAGCTGATGAATTGAAAGCGTCGAGTAAACAAATTTTCCTAATCTTTCTGTTCAAGCGCCATCTAC”: the binding signal was 0.868 RPM ratio (pull-down/input).

Turning to “GATGATTGTTCTCCCAGCTGATGAATTTAAGCGTTCGAGTAAACAAATTTTCCTAATCTTTCTGTTCAAGCGCCATCTAC”, the binding signal was 0.966 RPM ratio (pull-down/input).

As to “GATGATTGTTCTCCCAGCTGATGAATTTTAGTGGTCGAGTAAACAAATTTTCCTAATCTTTCTGTTCAAGCGCCATCTAC”, the binding signal is 0.918 RPM ratio (pull-down/input).

On to “GATGATTGTTCTCCCAGCTGATGAATTAAAGATGTCGAGTAAACAAATTTTCCTAATCTTTCTGTTCAAGCGCCATCTAC”, for which the binding signal is 0.985 RPM ratio (pull-down/input).

Take “GATGATTGTTCTCCCAGCTGATGAATTGTGTAGGTCGAGTAAACAAATTTTCCTAATCTTTCTGTTCAAGCGCCATCTAC”: the binding signal was 1.11 RPM ratio (pull-down/input).

Consider “GATGATTGTTCTCCCAGCTGATGAATTAACAGACTCGAGTAAACAAATTTTCCTAATCTTTCTGTTCAAGCGCCATCTAC”, for which the binding signal is 0.866 RPM ratio (pull-down/input).

For the sequence “GATGATTGTTCTCCCAGCTGATGAATTAATGCGATCGAGTAAACAAATTTTCCTAATCTTTCTGTTCAAGCGCCATCTAC”, the binding signal was 1.29 RPM ratio (pull-down/input).

As for “GATGATTGTTCTCCCAGCTGATGAATTATCTGGTTCGAGTAAACAAATTTTCCTAATCTTTCTGTTCAAGCGCCATCTAC”, the binding signal is 0.96 RPM ratio (pull-down/input).

For the sequence “GATGATTGTTCTCCCAGCTGATGAATTCACAGCATCGAGTAAACAAATTTTCCTAATCTTTCTGTTCAAGCGCCATCTAC”, the binding signal is 0.993 RPM ratio (pull-down/input).

Regarding “GATGATTGTTCTCCCAGCTGATGAATTAAGCACTTCGAGTAAACAAATTTTCCTAATCTTTCTGTTCAAGCGCCATCTAC”, the binding signal was 0.902 RPM ratio (pull-down/input).

Regarding “GATGATTGTTCTCCCAGCTGATGAATTTTTTCGATCGAGTAAACAAATTTTCCTAATCTTTCTGTTCAAGCGCCATCTAC”, the binding signal was 1.01 RPM ratio (pull-down/input).

As to “GATGATTGTTCTCCCAGCTGATGAATTGAGTACTTCGAGTAAACAAATTTTCCTAATCTTTCTGTTCAAGCGCCATCTAC”, the binding signal was 0.964 RPM ratio (pull-down/input).

Regarding “GATGATTGTTCTCCCAGCTGATGAATTGTACCTGTCGAGTAAACAAATTTTCCTAATCTTTCTGTTCAAGCGCCATCTAC”, the binding signal is 0.958 RPM ratio (pull-down/input).

“GATGATTGTTCTCCCAGCTGATGAATTAACGAGTTCGAGTAAACAAATTTTCCTAATCTTTCTGTTCAAGCGCCATCTAC”: the binding signal was 0.92 RPM ratio (pull-down/input).

For the sequence “GATGATTGTTCTCCCAGCTGATGAATTGGAAGTCTCGAGTAAACAAATTTTCCTAATCTTTCTGTTCAAGCGCCATCTAC”, the binding signal was 0.83 RPM ratio (pull-down/input).

For “GATGATTGTTCTCCCAGCTGATGAATTTTGACGATCGAGTAAACAAATTTTCCTAATCTTTCTGTTCAAGCGCCATCTAC”, the binding signal was 0.961 RPM ratio (pull-down/input).

Regarding “GATGATTGTTCTCCCAGCTGATGAATTCGTTCTGTCGAGTAAACAAATTTTCCTAATCTTTCTGTTCAAGCGCCATCTAC”, the binding signal was 0.884 RPM ratio (pull-down/input).

For the sequence “GATGATTGTTCTCCCAGCTGATGAATTTGTCATTTCGAGTAAACAAATTTTCCTAATCTTTCTGTTCAAGCGCCATCTAC”, the binding signal was 1.14 RPM ratio (pull-down/input).

For the sequence “GATGATTGTTCTCCCAGCTGATGAATTCACATAGTCGAGTAAACAAATTTTCCTAATCTTTCTGTTCAAGCGCCATCTAC”, the binding signal was 0.923 RPM ratio (pull-down/input).
